Results on 57 compounds are retold here after PubChem BioAssay AID463173 (ICCB-Longwood Screening Facility, Harvard Medical School, 2010).

SMILES strings stand for the structures. The whole screen tested about 52,000 compounds, of which about 1,700 (3.3%) were called active. Cut-off read from the data, not from the text of the source: active = survival mostly below about 52% (no sharp cut-off); inactive = mostly above about 56%. This is one part of the list.

The assay has as its system Wild type. Nature of the assay: S. aureus survival, RN4220 and DeltatarO strains – OD600, teichoic acid synthesis inhibitors, primary screen (AID 463173). Conditions: S. aureus RN4220 wild type/DeltatarO growth, OD600, 18 h, active compounds read low, screened at 18.75 µg/mL (by protocol).
`Cc1ccc(C(=O)N2CCc3cc(CNS(=O)(=O)c4ccc(Cl)s4)ccc32)cc1`: the survival was inactive: 60%.

For the compound `Cc1ccc(C)c(N2CCN(C(=O)C3CCN(c4nc(-c5ccc(C(C)C)cc5)no4)CC3)CC2)c1`, the survival was inactive: 87%.

Turning to `CCOc1ccc(NC(=O)c2ccc3c(SCC(=O)O)c4c(nc3c2)CCCC4)cc1`, the survival was inactive: 86%.

Turning to `Cn1cc(S(=O)(=O)c2ccc(Cl)cc2)c(=O)c2cc(F)c(N3CCCCCC3)cc21`, the survival is inactive: 72%.

As for `O=C(CN1CCN(S(=O)(=O)c2cc(Cl)ccc2Cl)CC1)Nc1cccc(F)c1`, the survival was inactive: 90%.

For the compound `COc1cccc(C2(O)CCN(CC(=O)N3CCCC3)CC2)c1`, the survival is inactive: 110%.

As for `O=C(Nc1ccc(NC(=O)c2cc3ccccc3o2)cc1)c1ccccc1`, the survival is inactive: 80%.

For `CC1=C(C(=O)Nc2ccc(C)cc2C)C(c2ccccc2[N+](=O)[O-])n2ncc(C(=O)Nc3ccccc3)c2N1` (configuration not stated), the survival was inactive: 76%.

For the compound `CCOC(=O)C1CCCN(C(=O)c2ccc3c(c2)N(Cc2ccccc2)C(=O)c2ccccc2S3(=O)=O)C1` (configuration not stated), the survival was inactive: 96%.

`Fc1ccc(-c2nc(Nc3ccc(F)c(Cl)c3)nc3c2COc2ccccc2-3)cc1`: the survival was inactive: 52%.

For `Cc1cccnc1NCC(O)COc1ccccc1` (configuration not stated), the survival was inactive: 105%.

`CC(C(=O)Nc1cccc(C#N)c1)n1nc(-c2ccccc2)c2c(c1=O)CCCC2` (configuration not stated): the survival is inactive: 41%.

Consider `CCOc1ccc(C2CC(=O)n3nc(-c4ccc(C)cc4)nc3S2)cc1OC` (configuration not stated), for which the survival was inactive: 103%.

Regarding `CC(C)N(C(=O)Cn1cc(S(=O)(=O)Cc2ccc(Cl)cc2)c2ccccc21)C(C)C`, the survival is inactive: 89%.

Take `Nc1nn(-c2ccccc2)nc1C(=O)OCc1c(F)cccc1Cl`: the survival was inactive: 61%.

Take `Cc1ccc(N(Cc2cccs2)C(=O)c2ccco2)cc1`: the survival was inactive: 85%.

As for `COc1cc(Nc2nc(SCC(=O)c3ccc(Cl)c(Cl)c3)nc3ccccc23)cc(OC)c1`, the survival is inactive: 88%.

On to `O=C(Nc1ccc2nc3n(c(=O)c2c1)CCCCC3)c1cccc(C(F)(F)F)c1`, for which the survival is inactive: 112%.

In the case of `O=C(CCC1N=C2c3ccccc3N=C(SCC(=O)Nc3ccc(F)cc3)N2C1=O)NCc1ccco1` (configuration not stated), the survival is inactive: 121%.

For `COc1ccc(-n2c(SCC(=O)NCc3ccccc3)nc3c([nH]c4ccccc43)c2=O)cc1`, the survival was inactive: 74%.

As for `COc1ccc(N=C2SC(C(N)=O)CC(=O)N2Cc2ccccc2)cc1` (configuration not stated), the survival was inactive: 113%.

For the compound `O=C1C2(Cc3ccccc3)CN3CN(C2)CC1(Cc1ccccc1)C3`, the survival was inactive: 101%.

Consider `COc1ccc(Nc2nn(-c3ccc(OC(F)(F)F)cc3)nc2C(C)=O)cc1`, for which the survival was inactive: 95%.

On to `Cc1cc(C(=O)NCc2ccccc2)c2c(C)nn(-c3cccc(F)c3)c2n1`, for which the survival is active: 14%.

Turning to `COc1ccc(NC(=O)CC2Nc3ccccc3NC2=O)cc1` (configuration not stated), the survival was inactive: 73%.

Turning to `CCCCN(C)C(=O)Cn1cnc2sc(C)c(S(=O)(=O)N3CCC(C)CC3)c2c1=O`, the survival is inactive: 81%.

On to `COc1cc(OC)c(NC(=O)N2CCC(CN3CCCC3)CC2)cc1Cl`, for which the survival was inactive: 69%.

`CCOC(=O)c1ccc(Nc2nn3c(=O)c4ccccc4nc3s2)cc1`: the survival is inactive: 71%.

As to `COc1ccc(OC)c(NC(=O)c2ccc3c(Cl)c4c(nc3c2)CCCC4)c1`, the survival was inactive: 84%.

Take `Cc1ccc(CNc2ccc3cc(S(=O)(=O)N4CCCCC4)ccc3n2)cc1`: the survival is inactive: 63%.

In the case of `COc1ccccc1Nc1ncnc2scc(-c3ccc(F)cc3)c12`, the survival was inactive: 82%.

In the case of `Cc1ccc(CNC(=O)c2ccc(CS(=O)(=O)Cc3ccc(C)cc3)o2)cc1`, the survival is inactive: 22%.

`Cc1nn(-c2ccccc2)c2c1N(CC(=O)N1CCN(c3ccccc3F)CC1)C(=O)CS2`: the survival is inactive: 115%.

Turning to `CCN(CC)c1ccc(C2Nc3ccccc3-c3cc(C)nn32)cc1` (configuration not stated), the survival was active: -1%.

Take `Cc1ccc(S(=O)(=O)c2nc(-c3ccc(F)cc3)oc2N2CCN(c3ccccc3)CC2)cc1`: the survival is inactive: 115%.

In the case of `O=S(=O)(c1ccccc1)c1ccc(N2CCCCC2)cc1`, the survival is inactive: 103%.

`COc1ccc(C2(CNC(=O)C(=O)Nc3ccccc3C)CCCC2)cc1OC`: the survival was inactive: 86%.

Turning to `COc1ccc(CNC(=O)c2cccn2-c2nnc(N3CCCC3)s2)c(OC)c1`, the survival was inactive: 81%.

With `CCCCN(CCCNC(=O)c1cc(Nc2ccccc2OC)nc2ccccc12)c1ccccc1`, the survival was inactive: 89%.

In the case of `CCCC12CCC(C(=O)O)(CC1)CC2`, the survival is inactive: 118%.

For `Cc1ccc(OCCCn2c(-c3ccc(Cl)cc3)nc3ccccc3c2=O)c(C)c1`, the survival is inactive: 67%.

In the case of `Clc1ccc(-n2c(Cc3ccccc3)nnc2SCc2nc(-c3cccs3)no2)cc1`, the survival is inactive: 91%.

Regarding `COc1ccc(NC(=O)c2oc3ccccc3c2NC(=O)C2CCCCC2)c(OC)c1`, the survival was inactive: 78%.

Regarding `Nc1c(C(=O)Nc2ccccc2)sc2nc3c(cc12)CN(Cc1ccccc1)CC3`, the survival is inactive: 64%.

Turning to `Cc1ccc(NC(=O)C2CCCN(S(=O)(=O)c3c(C)noc3C)C2)cc1` (configuration not stated), the survival is inactive: 126%.

With `CCOC(=O)c1scc(-c2ccc(C)cc2)c1S(=O)(=O)Nc1cc(OC)ccc1OC`, the survival is inactive: 76%.

As for `CCOc1cc(C#N)c(-n2nnc3c(sc4nc(C)cc(C)c43)c2=O)cc1OCC`, the survival is inactive: 71%.

Take `CCCCN(C)C(=O)c1ccc2c(c1)N(Cc1cccc(F)c1)C(=O)c1ccccc1S2`: the survival was inactive: 69%.

Consider `Cc1cc(C)c(/C=C/c2onc(C)c2S(=O)(=O)N2CCC(C(=O)NCCc3ccccc3)CC2)c(C)c1`, for which the survival was inactive: 70%.

For the compound `Cc1cccc(N(CC(=O)NCCSCc2ccccc2)S(=O)(=O)c2ccccc2)c1C`, the survival was inactive: 73%.

As to `O=C(Cn1c(=O)c2cccn2c2ccccc21)NCc1ccccc1F`, the survival is inactive: 113%.

As for `COC(=O)c1ccc(NC(=O)Cn2cnc3c2c(=O)n(C)c(=O)n3C)cc1`, the survival was inactive: 73%.

For the compound `CCc1cccc(C)c1NC(=O)C1CCCN1S(=O)(=O)c1cccc2nsnc12` (configuration not stated), the survival was inactive: 65%.

For the compound `CCCC(=O)N1CCN(c2nc3ccc(F)cc3s2)CC1`, the survival is inactive: 73%.

As to `CCn1c(=O)c(=O)n(CC)c2cc(S(=O)(=O)Nc3ccc(C)cc3)ccc21`, the survival is inactive: 111%.

With `O=C(Nc1ccccc1)c1snc2c(=O)[nH]cnc12`, the survival is inactive: 107%.

Regarding `Cc1ccc(C(=O)c2cn(Cc3ccccc3)c3nc(C)ccc3c2=O)cc1`, the survival was inactive: 74%.
